The values that follow come from PubChem BioAssay AID200 (DTP/NCI, 2004).

Toxic doses and inconclusive results are not listed. For part of its entries the source gives two or more results. They are shown here; other results are not. There may be further records. The values listed for one entry do not match, cause unknown; dose, time, organism, isomer or construct need not be as stated for each record.

The assay concerns B6C3F1 mice, B16 melanoma ip, median survival T/C. Nature of the assay: NCI In Vivo Anticancer Drug Screen. Data for tumor model B16 Melanoma (intraperitoneal) in B6C3F1 mice. Conditions: endpoint: median survival time, higher = longer survival. The protocol: The antitumor activity of compounds was measured in mice bearing transplantable tumors. Survival or tumor size were measured and the results are expressed as the measurement made in the treated group (T) divided by the measurement made in the vehicle treated control group (C). The tumor model used in this assay is B16 Melanoma (intraperitoneal) in B6C3F1 mice

Setting [1] is: dose: 50.0 mg/kg/injection, schedule: Q01DX009 (ip), vehicle: saline with Tween-80.

On to `NC(=S)N/N=C\c1ncccc1OCc1cccc(N)c1`, for which the T/C under setting [1] is given as 107 % of control, 124 % of control, 169 % of control.
With `O=NN(CCCl)C(=O)NCCCl`, the T/C (dose: 32.0 mg/kg/injection, schedule: Q01DX001 (ip), vehicle: saline) was 117 % of control and 154 % of control.
Take `COC1CC2C=C(C)/C=C/C=C/C(=O)NC(c3ccccc3)C/C=C/CCC(O)CC(=O)C2=C1O` (configuration not stated): the T/C (dose: 12.5 mg/kg/injection, schedule: Q01DX009 (ip), vehicle: Klucel (hydroxypropylcellulose) (HPC)) was 119 % of control and 181 % of control.
On to `CC(C)NC(=O)OCc1c(COC(=O)NC(C)C)c(-c2ccc(Cl)c(Cl)c2)n2c1CC(OC(=O)CN(C)C)C2` (configuration not stated), for which the T/C (dose: 5.0 mg/kg/injection, schedule: Q01DX009 (ip), vehicle: distilled water + Tween-80) is 106 % of control and 155 % of control.
Take `O=C(Nc1ccc([N+](=O)[O-])cc1)Nc1nccs1`: the T/C (dose: 50.0 mg/kg/injection, schedule: Q01DX009 (ip), vehicle: distilled water + Tween-80) is 118 % of control and 170 % of control.
For the molecule `c1ccc(OCC2CO2)c(OCC2CO2)c1` (configuration not stated), the T/C under setting [1] is 121 % of control and 162 % of control.
On to `C=Cc1cc(OC)c2c(c1)c(=O)oc1c2cc(OC)c2c(O)ccc(C3OC(C)C(O)C(C)(O)C3O)c21` (configuration not stated), for which the T/C (dose: 10.0 mg/kg/injection, schedule: Q01DX009 (ip), vehicle: DMSO) is 120 % of control and 152 % of control.
